{
  "source": "the supplement of paper PMC12632987",
  "binders": {"B1": {"name": "traf2_out_5_63_2357 (protein)", "chain": "SEREELTALAREADRLARELLEAARAGDEERVEELLERAAEDPELARLVLGILKGEAKYYKLLGTDPENAKIAEELARRLEELMRRREAAAAAAAAAAAA"}, "B2": {"name": "traf2_out_20_3_2127 (protein)", "chain": "EELEKELEKELEKAIKLLEEAAKLASPETAKKLLELAKKLEESRELSPEDRLVEVSAIRREVLALAQEAAAAGDEELAAVLEKAADALNRAMQLLYKIIE"}, "B3": {"name": "traf2_out_14_149_1230 (protein)", "chain": "SHMAELLKKAAELTEKIAETLKEVLKLLEAGKLEEAKALLEKSIEELKKESEESGVTVSTLFELEDLLALLKSDPSKAKEAAERALKRAEERAEALKEMA"}, "B4": {"name": "traf2_out_20_3_2208 (protein)", "chain": "EELEKELEKELDEALALLKEAQKLADPETAKVLDALIKRLKASRELSYEDRLVELSEIRREVLLLQQQALAAGNKELAAVLAEAADKIQKAMNLVYKIIE"}, "B5": {"name": "traf2_out_13_95_1065 (protein)", "chain": "SLETAKKINELAEKAEERALALLDAARAELADDPEAVAALDEARAALETRGIRAAIDVLRRARAAHPEHAAEFDALIAELEAIRRELGREVAKILKEEKE"}, "B6": {"name": "traf2_out_20_3_2090 (protein)", "chain": "EELEKKLEEALEEAEKLLKEAIKLADPETAERLKKLLERLKKARELPLEDRLVELSEVRRELLELAEEARAAGREELAALLEEAADKVNRAMNLAYKIIE"}, "B7": {"name": "traf2_out_1_27_1026 (protein)", "chain": "SENERLKEVNRLTTELLADPSRTVAEIAEAVVESMRDLDLGTVRHALLVALSMVPLEQRREFALAAAEAAARILGLSPEEVAALRELLLSAVEREEKALA"}, "B8": {"name": "traf2_out_17_178_1680 (protein)", "chain": "TKEEERKKISEYTDKLIDLTEETGTALLARAEADGTLSPEELAALRAAIRAGSNRTFLALAERAAPRLADAAAAQAALDAFKKEAAELNKKIAEAYKKYE"}, "B9": {"name": "traf2_out_13_95_1213 (protein)", "chain": "SAEAKEKEREIANEYLDRAEAIIDALAAALAGDPAVQPDMDAIRHAFRNYGVNQAIALIREAAKRYPAHKELFDAAAEELEAVRREAGKKFAEIDKEAEA"}, "B10": {"name": "traf2_out_17_162_1493 (protein)", "chain": "SELEEKKKKLEKELKELKKKLKELEKKLENIEKLSKEELTDLLVEASELKRKARQLAEEYKKLLKKTGDKELEKLIKEAEELAERAQKIANKIYKEIEKK"}, "B11": {"name": "traf2_out_17_162_1513 (protein)", "chain": "SALEEELKKLKEELEKLKKKLEELEKKLKNLEKMSKEELTDLLVEASEARREARLLAEELRKLLPLIGKEEAEKLIKEAEEIAERLQKIANKIYKELEKK"}, "B12": {"name": "traf2_out_13_95_1177 (protein)", "chain": "SEETKKKINEIADEMIDKVVAVLDELSEKVKDDPEVKAKLDEIRETAVKKGISTAIHKLRELSKANPEHKELITEALEKIEEIRREAGKKVAEIIKEEEE"}, "B13": {"name": "traf2_out_11_169_885 (protein)", "chain": "EEKEKNRKFNDFALELNDKAKEELKAFALELAKKLGLDVKEVEKIFEENKNKSLSYLASALIEYFRKKGKEDAAEKVLEKYEELKDKINKEGTAKMKELE"}, "B14": {"name": "traf2_out_11_169_874 (protein)", "chain": "EEAEKNRKLNDFALELNDKAKEELKKFALELAKELGLDVEEVEKIFEENKNKSLSAVASALIRYFKSKGKEEAAEKILEKYEELKEEINKEMSKKIKELE"}, "B15": {"name": "traf2_out_11_79_932 (protein)", "chain": "SEKRKELEELLERARELVERLIELLEAGTLSPEEFAALIEEILRLLQRAAELALELGYSDVLVLISEARRHVLLSRDRDLEHARKALEYLEKALEELKKL"}, "B16": {"name": "traf2_out_20_3_2259 (protein)", "chain": "EELKKKAEEYLKKAEELLEEVKPHLPPEVAAEAERLLKELKKAFKTDVSDAMVYASELKRLALERAEEARAAGDEELAAKLEELADTLNKLLHYLYLIAQ"}, "B17": {"name": "traf2_out_13_95_1179 (protein)", "chain": "SEETKKKINEIADEMIDKVEAILDAASKAVADDPEVKAALDAIKKTARTKGISTAIHQLKELSAANPAYKELLDAALKEIEAVRREAGKKVAEILKKEEE"}, "B18": {"name": "traf2_out_17_162_1474 (protein)", "chain": "MSIEERVAELEKELKELEKRVKELEEKLKELEKKSKEEITDLLVEVSEIRRRARELAEEFRALAPEIGEETAKELADRAEEIAERAQKIANEIYKELEKK"}, "B19": {"name": "traf2_out_13_95_1134 (protein)", "chain": "SKETAEKIMAVADEMLEKSEEILEKLLAEAKKKGKLEEEIKEVLYLNRYRSINEAIHKLKELAKKYPEFKEELDAAIEKLEEIKREAGRRVAKILKEEKE"}, "B20": {"name": "traf2_out_6_156_2413 (protein)", "chain": "MVEKIFEETLKKVEELIKKLSKASEEKKISYISKIAGTVYKALQQLREAGASLEEIKEFSERLKKEIEKLLKEAGLDEKTRNLVLSSVNAVFTVAIEEAK"}, "B21": {"name": "traf2_out_17_178_1665 (protein)", "chain": "TKEEERKKISELTDKLIDLAEAAADRALALAEREGDLSPEELAALREARRRGSATDVRALMRRWIPRLRSAAELGALLEEFEAEYRKLSKEIAEAYEKYE"}, "B22": {"name": "traf2_out_13_95_1151 (protein)", "chain": "SAETAAKINAVADEMLDKVEKLLEELLEIAKKKGVPTEPIQKALDLARNRSINEAIHLLKELAKEYPELKEELEKTIEEIEKLKEEAGRRVAEILKEAEA"}, "B23": {"name": "traf2_out_20_38_2000 (protein)", "chain": "SMEEEEERLLEEEIEAANEAEDEAAAWVAELQAAGKSVEEIAAEAKARVDELLTAAGLEEERDDLVADIDLALSSPDAVRLITRILARAITLVRQKELRK"}, "B24": {"name": "traf2_out_13_95_1116 (protein)", "chain": "SKELAEKIMEIADKALEEANKLLDELLEKIKASGKLDPEVEKALEEAKKSTIRTAIHTLKELSKKYPEFKELFDETIKKLEEIRRKAGKEVAKLIKEEEE"}, "B25": {"name": "traf2_out_11_155_764 (protein)", "chain": "KEKQEIYQEYNDKVSEIADELDAKLEEIVAELAERDPETAARVRAVLEAHRDASARSRALLAARILEEAGHEELAKRVLEAVEEAQKKMNEIAIETEKKL"}, "B26": {"name": "traf2_out_13_95_1163 (protein)", "chain": "EEEKTKKIREVASEAADKMEEVARDFRDRVEALTGDPEARALTDRVVRVTNEYTLEHVADELIAKYPEHAAEIRALRDEALAKLREIRKETTKKLNEIEE"}, "B27": {"name": "traf2_out_20_38_2034 (protein)", "chain": "SMEEEEEEKLEEIIEVANEALDKYEAEIAKWKAEGKTVEEIAEEAKKKVKELLSKVGLEEEAKILIEEIDLALSSPDAERLIARTLARAEALVKQKELNE"}, "B28": {"name": "traf2_out_6_3_2521 (protein)", "chain": "SEESLRRDARRVLEGMDIKTAEQLKTLVKAEVNAVKKLVSRPDTDEATLAGAESVLELSRAIVEVAAEELPDLTEEDVKELKELIEEARKLIEKKRKELE"}, "B29": {"name": "traf2_out_6_156_2385 (protein)", "chain": "MAEEILKETLEKIEKYIKALSEAPEEKKIAYINKIAGTVYRGLQRLRAAGASLEELREFVERVKEEVEKWLKENGLDESTKNLILASINAVGEVALREAA"}},
  "note": "Over roughly 1,800 sequences, “median log2 fold change of GCK-ALFA target abundance (FLAG IP / Myc IP barcode read proportion)” has its median near 0.14; the lowest 2% begin near -0.84. The list shows a part of the results.",
  "data": [
    {"biological_target": "T1, TRAF2, Q12933", "T1 chain": "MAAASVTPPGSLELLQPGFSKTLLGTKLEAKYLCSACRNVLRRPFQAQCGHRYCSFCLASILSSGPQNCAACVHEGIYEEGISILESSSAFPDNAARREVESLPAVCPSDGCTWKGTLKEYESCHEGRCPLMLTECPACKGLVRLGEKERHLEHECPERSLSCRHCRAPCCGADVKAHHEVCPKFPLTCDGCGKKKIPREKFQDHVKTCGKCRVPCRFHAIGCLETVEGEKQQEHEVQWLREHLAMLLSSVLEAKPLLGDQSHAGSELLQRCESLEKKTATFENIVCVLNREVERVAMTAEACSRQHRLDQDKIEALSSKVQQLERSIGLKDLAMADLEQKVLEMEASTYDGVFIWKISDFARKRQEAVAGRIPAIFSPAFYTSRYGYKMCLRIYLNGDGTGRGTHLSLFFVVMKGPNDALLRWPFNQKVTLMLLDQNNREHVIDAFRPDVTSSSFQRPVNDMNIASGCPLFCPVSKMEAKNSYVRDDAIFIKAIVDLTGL", "test": "median log2 fold change of GCK-ALFA target abundance (FLAG IP / Myc IP barcode read proportion) (log2 ratio); each designed protein is fused to an ALFA-tag nanobody in HEK293 cells to bring the named protein to FLAG-tagged glucokinase (GCK); Myc marks an untargeted standard; higher = target protein stabilised (more abundant)", "settings": "target protein: 3xFLAG-MCP-GCK-ALFA reporter; HEK293 landing pad (RPLP)", "method_in_brief": "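Binders fused to an ALFA nanobody were recombined as a library into HEK293 landing-pad cells, which were induced with 2 μg mL^−1 doxycycline and then transfected to express a FLAG-tagged target and a Myc-tagged standard. After 48 h, circular RNA barcodes recovered by anti-FLAG and anti-Myc immunoprecipitation of lysates were reverse transcribed, amplified and sequenced. Each binder's target abundance is the median log2 ratio of FLAG to Myc barcode read proportions, from barcodes present at ≥10^−7 in both replicates, binders carrying ≥3 barcodes per replicate, a 10^−6 pseudocount and pooled replicates.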", "values": [
      {"binder": "B1", "median log2 fold change": -0.227},
      {"binder": "B2", "median log2 fold change": -0.168},
      {"binder": "B3", "median log2 fold change": 0.108},
      {"binder": "B4", "median log2 fold change": 0.309},
      {"binder": "B5", "median log2 fold change": -0.0137},
      {"binder": "B6", "median log2 fold change": 0.221},
      {"binder": "B7", "median log2 fold change": 0.333},
      {"binder": "B8", "median log2 fold change": 0.0759},
      {"binder": "B9", "median log2 fold change": 0.179},
      {"binder": "B10", "median log2 fold change": 0.47},
      {"binder": "B11", "median log2 fold change": 0.453},
      {"binder": "B12", "median log2 fold change": -0.19},
      {"binder": "B13", "median log2 fold change": 0.491},
      {"binder": "B14", "median log2 fold change": -0.164},
      {"binder": "B15", "median log2 fold change": 0.216},
      {"binder": "B16", "median log2 fold change": 0.407},
      {"binder": "B17", "median log2 fold change": -0.492},
      {"binder": "B18", "median log2 fold change": 0.345},
      {"binder": "B19", "median log2 fold change": -0.234},
      {"binder": "B20", "median log2 fold change": 0.231},
      {"binder": "B21", "median log2 fold change": 0.057},
      {"binder": "B22", "median log2 fold change": -0.0175},
      {"binder": "B23", "median log2 fold change": 0.404},
      {"binder": "B24", "median log2 fold change": 0.062},
      {"binder": "B25", "median log2 fold change": 0.259},
      {"binder": "B26", "median log2 fold change": 0.254},
      {"binder": "B27", "median log2 fold change": -0.126},
      {"binder": "B28", "median log2 fold change": -0.093},
      {"binder": "B29", "median log2 fold change": -0.0467}
    ]}
  ]
}
